Reference: PMC4336329 (PLoS ONE, 2015)
In all, about 310,000 compounds went through this assay and about 2,200 (0.71%) showed an effect of 50% or more. Effects have a minus sign here. The list shows a part of the results.

Biological target: human ether-à-go-go-related gene (hERG) potassium channel (human, UniProt Q12809)
Experiment: primary screen, population patch clamp on CHO cells stably expressing hERG

human ether-à-go-go-related gene (hERG) potassium channel, sequence (Q12809 whole entry, looked up): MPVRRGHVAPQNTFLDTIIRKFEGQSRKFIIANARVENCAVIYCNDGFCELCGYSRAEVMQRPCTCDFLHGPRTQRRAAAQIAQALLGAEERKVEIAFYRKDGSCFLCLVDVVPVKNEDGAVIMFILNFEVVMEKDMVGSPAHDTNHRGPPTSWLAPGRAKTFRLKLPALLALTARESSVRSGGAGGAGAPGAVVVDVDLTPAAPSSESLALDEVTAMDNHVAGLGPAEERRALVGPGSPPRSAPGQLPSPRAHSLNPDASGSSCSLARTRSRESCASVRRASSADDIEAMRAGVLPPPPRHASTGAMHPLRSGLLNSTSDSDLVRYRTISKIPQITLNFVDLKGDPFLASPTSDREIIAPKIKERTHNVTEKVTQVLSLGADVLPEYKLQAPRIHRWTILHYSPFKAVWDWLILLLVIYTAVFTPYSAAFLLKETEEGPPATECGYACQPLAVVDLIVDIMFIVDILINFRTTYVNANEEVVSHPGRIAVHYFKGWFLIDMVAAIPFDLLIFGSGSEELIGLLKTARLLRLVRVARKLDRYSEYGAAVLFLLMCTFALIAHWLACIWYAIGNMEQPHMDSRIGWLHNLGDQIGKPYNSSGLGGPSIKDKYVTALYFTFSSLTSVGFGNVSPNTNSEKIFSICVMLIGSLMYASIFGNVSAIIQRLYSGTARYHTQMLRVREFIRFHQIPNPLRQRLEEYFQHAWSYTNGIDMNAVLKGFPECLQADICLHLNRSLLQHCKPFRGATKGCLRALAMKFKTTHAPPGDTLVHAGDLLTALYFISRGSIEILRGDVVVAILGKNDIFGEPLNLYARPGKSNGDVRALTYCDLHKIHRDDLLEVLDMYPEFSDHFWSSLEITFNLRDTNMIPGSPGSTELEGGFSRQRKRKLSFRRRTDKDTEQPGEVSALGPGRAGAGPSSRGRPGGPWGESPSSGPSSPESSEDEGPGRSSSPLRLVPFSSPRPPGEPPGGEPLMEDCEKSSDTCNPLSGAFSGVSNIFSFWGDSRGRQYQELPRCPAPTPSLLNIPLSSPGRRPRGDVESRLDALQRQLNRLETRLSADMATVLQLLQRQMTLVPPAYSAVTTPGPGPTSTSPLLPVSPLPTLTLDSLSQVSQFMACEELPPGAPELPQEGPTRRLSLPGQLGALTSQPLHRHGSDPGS

Compound	hERG current change (%, negative = inhibition) at 1uM
Cc1ccc(NC(=O)CN(C)CC(=O)Nc2ccccc2C#N)cc1	9.73%
Cc1c(/C=C/C(=O)c2ccc(O)cc2)cnn1C	-0.752%
COc1ccc(CCNC(=O)/C=C/c2ccco2)cc1	2.84%
O=C(NC1CCSc2ccccc21)c1ccccc1Cl (stereo not shown)	4.67%
C=CCn1c(SCC(C)=O)nnc1-c1cc(-c2ccccc2)sc1N	1.84%
CCOC(=O)N1CCN(CCC(=O)Nc2ccc(C)cc2)CC1	5.62%
CN(C)c1ccc(CN(C(=O)c2ccco2)C2CCS(=O)(=O)C2)cc1 (stereo not shown)	1.89%
Cn1nc(C(=O)N2CCCc3ccccc32)c2ccccc2c1=O	11.3%
COc1ccc(NC(=O)C2CCCN(c3c4c(nc5ncnn35)CCC4)C2)cc1 (stereo not shown)	-7.7%
COc1ccc(-n2cccc2/C=C/[N+](=O)[O-])cc1	0.13%
COc1cccc2c(O)c(-c3ccccc3)c(=O)[nH]c12	15.7%
Cc1c(C#N)c2ncn(CCCN(C)C)c(=O)c2n1-c1ccccc1	8.56%
CCc1nnc(NS(=O)(=O)c2ccccc2)s1	8.61%
COc1ccccc1N1CCN(CC(=O)c2c(C)[nH]c3ccccc23)CC1	-2.2%
Cc1ccc(S(=O)(=O)N(C)C)cc1NC(=O)Nc1c(-c2ccccc2)noc1C	11.9%
COc1cccc(CNC(=O)CCNC(=O)c2ccco2)c1	12.5%
CCn1c(C2CCN(Cc3ccccc3)CC2)n[nH]c1=S	3.03%
Cc1cc(NC2CCCC2)n2ncc(-c3ccccc3)c2n1	3.69%
COCCN(C(=S)Nc1ccccc1C)C(C)c1ccco1 (stereo not shown)	15.6%
Cc1ccc(C(=O)OCc2nnc(-c3ccc(Br)cc3)o2)cc1	4.7%
O=C(NCc1ccc(F)cc1)c1ccccc1OCc1ccccc1	-3.3%
O=C(Nc1nnc(S(=O)(=O)N2CCCCC2)s1)c1ccc(Cl)cc1	12%

Compound	hERG current change (%, negative = inhibition) at 1uM
COc1ccc(N=Cc2c(OC)ccc3ccccc23)cc1	9.43%
COc1cccc(CCC(=O)Nc2cccc(S(=O)(=O)N3CCCC3)c2)c1OC	-3.91%
Cc1cc(NC(=O)CSc2nnc(-c3ccccc3)o2)no1	7.31%
CCC(=O)N1c2ccc(S(=O)(=O)CCC(=O)NCc3cccs3)cc2CC1C (stereo not shown)	14.7%
CC(=O)Nc1ccc(N2C(=O)C3C4CC(=O)C(c5ccccc54)C3C2=O)cc1 (stereo not shown)	11%
CCOC(=O)C1CCCCN1Cc1cccc(C(F)(F)F)c1 (stereo not shown)	9.49%
Cc1cccn2c(=O)c3cc(C(=O)NCc4ccco4)c(=N)n(C4CCCCC4)c3nc12	-84.8%
O=Cc1cn(CC(=O)Nc2ccc3c(c2)OCO3)c2ccccc12	16.8%
O=C(Cc1c(Cl)cccc1Cl)N1CCN(S(=O)(=O)c2cccs2)CC1	24%
COc1ccc(OCC(O)CN2CCN(c3ccc(Cl)cc3)CC2)cc1 (stereo not shown)	-3.03%
Cc1c(N2C(=O)/C(=C3\C(=O)N(CC(=O)O)c4ccccc43)SC2=S)c(=O)n(-c2ccccc2)n1C	9.82%
CC(C)(C)N(NC(=O)Nc1ccc(Cl)c(Cl)c1)C(=O)c1ccccc1	8.71%
COc1cccc(NC(=O)CCc2c(C)nn(-c3ccc(N4CCOCC4)nn3)c2C)c1	3.36%
COC(=O)Nc1nnc(-c2ccc(OC)cc2)s1	9.88%
COc1ccccc1CCN1CCCC(CN(C)C(=O)c2ccc3nc[nH]c3c2)C1 (stereo not shown)	12.4%
CCOc1ccc2nc(N=Nc3c(O)[nH]c(=S)[nH]c3=O)sc2c1	12.7%
O=C(Nc1ccc2nc3n(c(=O)c2c1)CCCCC3)c1c(F)ccc([N+](=O)[O-])c1F	0.423%
Cc1ccc(C(=O)c2oc3ccccc3c2NC(=O)c2cc(-c3ccccc3O)n[nH]2)cc1	13.9%
C=CCn1c(O)c(/C=C2\C=NN=C2c2ccccc2)sc1=S	8.78%
Cc1noc(C)c1COc1cccc(C(=O)NCc2cccc(Cl)c2)c1	3.67%
COc1ccc(C2NCCc3c2[nH]c2ccccc32)cc1COc1ccc(F)cc1.Cl (stereo not shown)	-2.91%
CCOC(=O)c1ccc(NC(=O)Cn2nnc(-c3ccccc3)n2)cc1	1.77%

Compound	hERG current change (%, negative = inhibition) at 1uM
O=C(CN1CCCCC1)Nc1cc(Cl)ccc1Oc1ccccc1	9.88%
CCOC(=O)C1(S(=O)(=O)c2ccccc2)CCN(Cc2ccccc2)CC1	-0.127%
CC(C)=CCCC1=CCC(/C=N/NC(N)=O)C(C)C1 (stereo not shown)	7.56%
COC(=O)CSc1nnc(-c2ccoc2C)n1-c1ccc(OC)cc1	8.81%
Cc1ccoc1C(=O)NCCNC(=O)c1occc1C	-2.62%
Cc1ccc(NC(=O)CSC2=C(C#N)C(c3ccco3)C3=C(CCCC3=O)N2)cc1 (stereo not shown)	5.68%
CC(C)COc1ccccc1C(=O)NC(CO)C(=O)O (stereo not shown)	15.1%
CCN(CC)C(=O)c1c(-c2ccccc2)oc2ccc(OC)cc12	10.8%
CCOC(=O)Nc1c(C(=O)OC)[nH]c2cc(OC)ccc12	-3.1%
CCOc1ccc(-c2ccc(SCC(=O)N3CCN(c4ccccc4)CC3)nn2)cc1	13.6%
c1ccc(CN=C2NN=C(c3cc4ccccc4o3)CS2)cc1	14.2%
CCN(CC)S(=O)(=O)c1ccc(N2CCOCC2)c(NC(=O)c2cnccn2)c1	14.5%
O=S(=O)(NCc1ccc2c(c1)OCO2)c1cccc2cccnc12	0.0688%
Cc1csc(=NC(=O)c2ccccc2)n1CCO	14.6%
O=C(CCCn1cnc([N+](=O)[O-])n1)Nc1cccc2ccccc12	17.7%
COc1ccccc1CCNC(=O)CSc1nnc2ccc(-c3ccncc3)nn12	3.14%
Br.CCN(CC)S(=O)(=O)c1cccc(C(=O)NN2Cc3ccccc3C2=N)c1	-3.84%
CCOC(=O)c1c(C2CC2)csc1NC(=O)COC(=O)c1cnc(Cl)c(Cl)c1	16.3%
CCN(CC)S(=O)(=O)c1cc(NC(=O)COC(=O)CCC(=O)c2ccc(F)cc2)ccc1C	11.4%
C=CCn1c(=O)c2ccccc2n2c(SCC(=O)NC)nnc12	11.9%
CCOC(=O)N1CCN(C(=O)CCc2nc3sc4c(c3c(=O)[nH]2)CCCC4)CC1	-4.13%
Clc1ccc(C2[C@H]3CN(Cc4cccnc4)[C@H](c4ccccc4)C34CC2(c2ccccc2)C4)cn1 (stereo partly shown)	14.4%

Compound	hERG current change (%, negative = inhibition) at 1uM
Cc1ccc(NC(=O)COC(=O)CN2C(=O)c3ccccc3C2=O)cc1	4.96%
COc1ccc(C)cc1NC(=O)CCCN1C(=O)C(c2ccccc2)Oc2cccnc21 (stereo not shown)	11%
COc1ccc(OC)c(S(=O)(=O)N2CCCC(C(=O)NCCc3ccccc3)C2)c1 (stereo not shown)	3.01%
CCOc1ccc(-n2c(SCC(=O)Nc3ccccc3CC)nc3n[nH]c(C)c3c2=N)cc1	8.56%
Cc1cccc(N(C(=O)c2sc(C)nc2C)C(C(=O)NCC2CCCO2)c2ccccc2)c1 (stereo not shown)	8.18%
CC1(C)CC(NC(=O)c2ccc(Cl)c(Cl)c2)CC(C)(C)N1	11.9%
CNC(=O)CSc1nnc(-c2ccco2)n1-c1cccc(C)c1	7.18%
COCC1CCCN(C(=O)c2ccc3oc(C(C)C)nc3c2)C1 (stereo not shown)	9.33%
O=C(C(=O)N1CCOCC1)c1cn(Cc2ccccc2Cl)c2ccccc12	7.01%
COc1cc(-c2cc(C(=O)N3CCN(c4ccccn4)CC3)c3ccccc3n2)cc(OC)c1OC	-5.78%
CC(=O)c1ccc(Nc2ccc([N+](=O)[O-])c3nonc23)cc1	13.5%
CCC(C)NC(=O)CNC(=O)Cn1c(C)cc2ccccc2c1=O (stereo not shown)	16.5%
COCCn1c(SCC(=O)c2c(N)n(C)c(=O)n(C)c2=O)nc2ccccc21	8.41%
COc1ccccc1NC(=O)c1cccs1	-11.4%
CC12CCC(C(N)=O)(c3nc4ccccc4nc31)C2(C)C (stereo not shown)	5.55%
Oc1ccc(/C=N/n2c(-c3ccccc3)n[nH]c2=S)cc1Br	1.11%
COCCn1nnnc1C(c1cccc(C(F)(F)F)c1)N1CCN(Cc2ccccc2)CC1.Cl (stereo not shown)	5.53%
CCOc1ccc(NC(=O)CCC(=O)c2ccc(Br)cc2)cc1	11.4%
Cc1ccc(S(=O)(=O)N(C)C)cc1NC(=O)[C@H](Cc1ccccc1)N1C(=O)c2ccccc2C1=O	7.69%
Cc1ccc(NC(=O)c2ccc3c(=O)n4c(nc3c2)CCC4)cc1F	-3.69%
CC(C)(C)OC(=O)N1CCC(c2c(C(=O)NCC3CCN(C4CCCC4)C3)cnn2-c2ccccc2)CC1 (stereo not shown)	11.6%
COc1cc(C(=O)NNC(=O)Cc2ccc(S(=O)(=O)N3CCOCC3)s2)cc(OC)c1OC	9.26%
